The values that follow come from article PMC9032790.

The assay relates to antibody of the 5C3-cell clone. Nature of the assay: heterologous ic-ELISA hybridoma screening, 5C3 clone. To be noted: free clothianidin 50 μg/L. On the technique in general: An ELISA detects its analyte on a solid surface through an enzyme-linked reagent.

Take `CN/C(=N\[N+](=O)[O-])NCc1cnc(Cl)s1` [clothianidin]: the “inhibition of antibody binding to IMI-H-OVA” value (IMI-H-OVA 5 μg/mL) amounted to 51.9%. Further, the “inhibition of antibody binding to THC-H-OVA” value (THC-H-OVA 5 μg/mL) is on record as 53.72%.
